# Measurements taken from PubChem BioAssay AID652104 (National Center for Advancing Translational Sciences (NCATS), 2013).
# Screen size: about 410,000 compounds; about 7,200 (1.8%) were called active. The inconclusive results got no clear call from the source; some entries with a clear call stand among them for comparison. Calls come from the whole dose curve; as a rule, active = well fitted activation curve with a large enough effect; inconclusive = small, poorly fitted or top-dose-only effect, or another doubt; inactive = no such curve, though single readings can be large or run the other way. No potency is given beside an inconclusive call; the fits are too rough.
# Assay: qHTS of TDP-43 Inhibitors; note: nearly all actives have a fitted effect of over 50% in size; for growth rescue (activation): % of control where 0% means no effect
# Conditions: TDP-43 expressing yeast growth rescue, BacTiter-Glo, 24 h; growth rescue (activation): at 46.1 µM (top of the series) unless noted
# Outline: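 In this qHTS, compounds that restore growth of yeast expressing TDP-43 appear as activators. Cells (OD600=0.02, galactose medium, raffinose-pregrown) are incubated with compound 24 hr at 30 deg C and growth is quantified by BacTiter-Glo.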
# Potency is the fitted concentration of half-maximal effect; tags give direction and shape of the fitted curve.
Compound,Potency,growth rescue (activation)
O=C(c1ccc2c(c1)N(Cc1cccc(Cl)c1)C(=O)c1ccccc1S2)N1CCOCC1,"inconclusive [activator, single point]",–
COCCNC(=S)NNC(=O)CSCc1ccc(Cl)cc1Cl,"inconclusive [activator, single point]",–
O=C(O)C(=Cc1ccccc1Cl)c1ccccc1,"inconclusive [activator, single point]",–
COc1cccc(CNS(=O)(=O)/C=C/c2ccc3c(c2)OCO3)c1,active: 15.8 µM,–
CC1=C(C(=O)N2CCOCC2)CC(CC(=O)NC(c2ccccc2)c2ccccc2)C(=O)N1Cc1ccc(F)cc1 (stereo not drawn),"inconclusive [activator, partial curve]",–
S=C(NCc1cccs1)Nc1ccccc1Cl,"inconclusive [activator, full curve, poor fit]",–
COc1ccc(NC(=O)CSc2nc3sc4c(c3c(=O)n2-c2ccc(OC)cc2)CCN(C)C4)cc1,–,inactive: 3.97%
CC(=O)N1c2ccc(S(=O)(=O)N(C)Cc3ccccc3)cc2CC1C (stereo not drawn),"inconclusive [activator, single point]",–
COc1ccc(-c2nc3c(C)cc(Br)cn3c2Cc2cccc(Cl)c2)cc1OC,active: 31.6 µM,–
Cc1noc(C)c1COC(=O)c1ccccc1Sc1ccccc1C#N,"inconclusive [activator, single point]",–
CN(c1ccccc1)S(=O)(=O)c1ccc(NC(=O)CC(=O)c2ccccc2)cc1,"inconclusive [activator, partial curve]",–
O=C(Nc1ccc(S(=O)(=O)N2CCCCCC2)cc1)c1cc(=O)c2ccccc2o1,"inconclusive [activator, full curve, poor fit]",–
O=[N+]([O-])c1cc2c(cc1Br)-c1ccccc1C2,"inconclusive [activator, partial curve]",–
Cc1onc(-c2c(Cl)cccc2Cl)c1CO/N=C(\C#N)c1c(Cl)cccc1Cl,–,inactive: 10.8%
COC(=O)CCC(=O)c1oc2ccccc2c1N,"inconclusive [activator, single point]",–
COc1ccc(C2CC(=O)C3=C(C2)NC(C)=C(C(=O)Nc2ccccc2C)C3c2coc3ccc(C)cc3c2=O)cc1OC (stereo not drawn),"inconclusive [activator, single point]",–
Cc1ccnc(NC(=O)CCc2c(C)nc3ncnn3c2C)c1,"inconclusive [activator, full curve, poor fit]",–
COc1cccc(-c2ccc(SCc3ccccn3)nn2)c1,"inconclusive [activator, partial curve]",–
Cc1cccn2c(=O)cc(COc3cccc(NC(=O)COc4ccccc4)c3)nc12,–,inactive: 2.46%
O=C1NN=C(c2ccc(Cl)cc2)CC1c1cccc(Br)c1 (stereo not drawn),active: 12.6 µM,–
CC(C)OCCCNC(=O)CSc1c2c(nc3ccc(Cl)cc13)CCCC2,"inconclusive [activator, partial curve]",–
CC(=O)c1ccc(NC(=O)CCc2nc(-c3ccc(C)cc3)no2)cc1,–,inactive: 14.4%

Compound,Potency,growth rescue (activation)
COc1ccc(C(=O)N2CCCC(N3CCN(c4ccccc4F)CC3)C2)c(OC)n1 (stereo not drawn),"inconclusive [activator, single point]",–
COc1ccc(/C=C/c2c(-c3ccc(OC)cc3)oc(=O)c3cc(OC)c(OC)cc23)cc1,–,inactive: 18.3%
C[C@@H]1CN([C@@H](C)CO)C(=O)c2cc(-c3ccncc3)cnc2O[C@H]1CN(C)C(=O)c1cccc(F)c1,–,inactive: 0%
CCOC(=S)SCC(=O)Nc1nc(-c2ccccc2)cs1,"inconclusive [activator, single point]",–
O=C(CCl)N(C/C=C/c1ccccc1)c1ccc2c(c1)OCCO2,"inconclusive [activator, single point]",–
OC(c1ccc(Cl)c(F)c1)c1ncc(-c2ccccc2C(F)(F)F)[nH]1 (stereo not drawn),"inconclusive [activator, partial curve]",–
COc1cc(C#Cc2c(-c3cncn3C)n(C)c3ccc(-c4ccc5cc[nH]c5c4)cc23)cc(OC)c1,active: 20 µM,–
COc1ccc(C(=O)Nc2ccccc2-c2nc3ccccc3s2)c(OC)c1,"inconclusive [activator, partial curve]",–
CC(=O)Cc1nsc(Nc2ccc(Cl)cc2)n1,"inconclusive [activator, partial curve]",–
CC(C)(C)C(=O)N1CCN(c2nc3ccc(Cl)cc3s2)CC1,"inconclusive [activator, single point]",–
Cc1ccc(S(=O)(=O)N2CCN(C(=O)COC(=O)CCOc3ccccc3C)CC2)c(C)c1,–,inconclusive: 51.1% [activator]
O=C(COC(=O)c1ccccn1)Nc1cccc(Cl)c1Cl,"inconclusive [activator, single point]",–
C=CCn1c(C)c(C(C)=O)c(N2CCCC2)nc1=S,–,inactive: -21.6%
CCc1ccccc1NC(=O)c1cc2c(Cl)nc3ccccc3c2s1,–,inactive: -5.19%
NC(=S)NN=Cc1nccc2c(C(F)(F)F)cccc12,"inconclusive [activator, single point]",–
CCc1nn(CCCC(=O)N2CCN(c3cccc(C)c3C)CC2)c(=O)c2cc3occc3n12,"inconclusive [activator, single point]",–
Cc1ccc(NC(=O)C(C)OC(=O)CCNS(=O)(=O)c2ccc(C)cc2)cc1 (stereo not drawn),–,inactive: -20.8%
CC(C)C[C@H]1COCCS(=O)(=O)N1Cc1cccc(Cl)c1,"inconclusive [activator, partial curve, poor fit]",–
Cc1c(OCC(=O)OC(C)(C)C)ccc2c3c(c(=O)oc12)CCC3,–,inactive: 3.44%
O=C(COC(=O)C1c2ccccc2Oc2ccccc21)NC1CCS(=O)(=O)C1 (stereo not drawn),"inconclusive [activator, single point]",–
CCC1CCCCN1C(=O)c1sc2nc(C)nc(N(CC)CC)c2c1C (stereo not drawn),"inconclusive [activator, partial curve]",–
